Measured values reported in PMC4336329 (PLoS ONE, 2015).
Hit rate of the full screen: of about 310,000 compounds, about 2,200 (0.71%) showed an effect of 50% or more. Effects have a minus sign here. This is one part of the list.

biological target: human ether-à-go-go-related gene (hERG) potassium channel (human, UniProt Q12809); experiment: primary screen, population patch clamp on CHO cells stably expressing hERG
Sequence (Q12809 whole entry, looked up): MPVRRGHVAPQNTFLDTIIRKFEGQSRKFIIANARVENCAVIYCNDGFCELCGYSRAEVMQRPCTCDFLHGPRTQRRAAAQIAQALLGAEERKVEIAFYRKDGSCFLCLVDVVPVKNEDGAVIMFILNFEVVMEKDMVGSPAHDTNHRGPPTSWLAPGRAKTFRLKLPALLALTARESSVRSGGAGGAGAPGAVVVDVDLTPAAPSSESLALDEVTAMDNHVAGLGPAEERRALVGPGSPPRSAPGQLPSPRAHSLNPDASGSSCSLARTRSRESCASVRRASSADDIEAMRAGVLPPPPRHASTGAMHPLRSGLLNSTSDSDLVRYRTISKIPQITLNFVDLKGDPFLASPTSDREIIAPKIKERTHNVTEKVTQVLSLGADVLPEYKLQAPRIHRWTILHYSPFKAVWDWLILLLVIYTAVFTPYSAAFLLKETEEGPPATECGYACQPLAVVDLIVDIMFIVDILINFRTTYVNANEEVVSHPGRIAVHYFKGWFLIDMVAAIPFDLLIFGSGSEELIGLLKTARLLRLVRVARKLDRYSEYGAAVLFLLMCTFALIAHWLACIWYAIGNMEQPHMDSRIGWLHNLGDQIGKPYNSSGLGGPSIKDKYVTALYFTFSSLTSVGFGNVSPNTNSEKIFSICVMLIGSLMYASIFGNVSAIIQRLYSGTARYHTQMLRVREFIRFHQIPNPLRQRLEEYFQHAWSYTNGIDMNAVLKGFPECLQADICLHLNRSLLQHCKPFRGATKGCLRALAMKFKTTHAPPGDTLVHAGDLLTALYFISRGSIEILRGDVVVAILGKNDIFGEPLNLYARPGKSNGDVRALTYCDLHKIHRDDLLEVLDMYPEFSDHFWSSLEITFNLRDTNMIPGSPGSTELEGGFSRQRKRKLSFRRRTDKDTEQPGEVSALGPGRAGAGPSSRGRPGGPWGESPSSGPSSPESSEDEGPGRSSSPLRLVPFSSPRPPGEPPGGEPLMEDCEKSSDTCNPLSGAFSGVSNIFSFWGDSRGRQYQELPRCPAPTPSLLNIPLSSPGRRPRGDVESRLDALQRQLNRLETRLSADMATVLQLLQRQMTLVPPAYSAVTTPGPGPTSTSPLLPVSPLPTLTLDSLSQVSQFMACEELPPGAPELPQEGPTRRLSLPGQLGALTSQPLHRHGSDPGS

Row | SMILES | hERG current change (%, negative = inhibition) at 1uM [%]
1 | CCCCCOC(=O)C1=C(C)Nc2nnnn2C1c1ccc(OC)c(OC)c1OC (centres unmarked) | -0.396
2 | CC1(OC(=O)C2CCCC2)C(=O)C=C2C=C(c3ccsc3)N(Cc3ccco3)C=C2C1=O (centres unmarked) | 0.72
3 | Cc1ccccc1C(=O)NC1CCN(CC(=O)Nc2ccccc2Cl)CC1 | 3.34
4 | O=C(NCCCNC(=O)c1ccccc1)c1ccccc1 | 15.2
5 | CC(=O)NC(Nc1nc2c(s1)CCCC2)(C(F)(F)F)C(F)(F)F | 17.3
6 | Cc1cc2cc(CNC(=O)c3cc4ccccc4o3)ccc2n1C | 5.82
7 | COc1ccc(C(CC(=O)Nc2ncccc2C)N2Cc3ccccc3C2=O)cc1OC (centres unmarked) | 10.8
8 | CC(C)(C)c1ccc(C(=O)Nc2ccc(N3CCOCC3)cc2)cc1 | 1.55
9 | CC(C)[C@H](NC(=O)C1CCN(S(=O)(=O)c2ccccc2)CC1)C(=O)NCc1ccc(F)cc1 | 8.06
10 | CCCC(=O)C1=C(O)C(C(=O)OC)C(C)(C)CC1=NC(C)C (centres unmarked) | 16.1
11 | CCOC(=O)c1ccc(NC(=O)c2cn(-c3ccccc3)nc2-c2ccncc2)cc1 | -0.574
12 | O=C(Nc1ccccc1)/C(=C1\CCCN1)[N+](=O)[O-] | 2.82
13 | C/C(=N/NC(=O)CNC(=O)COc1ccccc1)c1ccco1 | 4.15
14 | COc1ccc2cc(C(c3nnnn3CCc3ccccc3)N3CCCC(C)C3)c(=O)[nH]c2c1 (centres unmarked) | -0.626
15 | Cc1cc(SCCOc2ccc(Br)cc2)nc(N)n1 | 5.6
16 | Cc1cc(N2CCOCC2)n2nc(C(F)(F)F)c(-c3ccccc3)c2n1 | 9.68
17 | O=C(Nc1ccc2c(c1)C(=O)N(CC1CCCO1)C2=O)c1ccccc1Br (centres unmarked) | 2.87
18 | Cc1cccc(NC(=O)CSc2ccc(C(N)=O)cc2[N+](=O)[O-])c1C | 6.84
19 | O=C(Nc1ccccc1C(=O)NCCc1ccccc1)c1ccco1 | 11.5

Row | SMILES | hERG current change (%, negative = inhibition) at 1uM [%]
20 | Cc1ccccc1NC(=O)c1nc(S(C)(=O)=O)ncc1Cl | 11.9
21 | Cc1cc(C)n2ncc(C(=O)NC3CCCCC3)c2n1 | 1.66
22 | CCN(C(=O)Nc1ccccc1OC)c1c(N)n(Cc2ccccc2)c(=O)[nH]c1=O | 11.8
23 | CCOC(=O)c1nn(-c2ccccc2)c(=O)c2c(N)scc12 | 8.79
24 | O=C(CSc1nnc(-c2cccnc2)s1)Nc1ccnc2ccccc12 | 6.56
25 | COCCSc1nc(N)c2c3c(sc2n1)CN(C)CC3 | 8.95
26 | O=C(c1cc(=O)[nH]c2ccc(Br)cc12)N1CCC2(CC1)OCCO2 | 7.64
27 | COc1ccc(S(=O)(=O)N2CCOC2CNC(=O)C(=O)NCCCN2CCOCC2)cc1 (centres unmarked) | 12.4
28 | COc1ccc(C(C)=O)cc1CSc1ccc2c(c1)OCCO2 | 15.2
29 | CN(C)/C=C/C(=O)c1cnc(-c2ccccc2)s1 | 8.35
30 | Nn1c(SCc2ccc(Br)cc2)nnc1-c1ccncc1 | 3.39
31 | CC1CCCCC1NC(=O)c1ccc(S(=O)(=O)NNC(=O)c2ccncc2)cc1 (centres unmarked) | 10.5
32 | CN(C)CCCN(C(=O)CCSc1ccccc1)c1nc2cc3c(cc2s1)OCO3.Cl | -1.2
33 | COCC(C)NC(=O)/C=C/c1ccc(OC)cc1 (centres unmarked) | 10.2
34 | CCCN1C2CCCC1CC(NC(=O)c1ccccc1F)C2 (centres unmarked) | -3.59
35 | CC1CCC(NC(=O)CC2Oc3ccccc3NC2=O)CC1 (centres unmarked) | 1.39
36 | CC1(C)C2CCC1(CS(=O)(=O)Nc1ccc(S(=O)(=O)NC3CCCCC3)cc1)C(=O)C2 (centres unmarked) | -3.91
37 | COc1ccccc1N(C(=O)c1snc(C(N)=O)c1N)C(C(=O)NCCC(C)C)c1ccco1 (centres unmarked) | 1.98
38 | O=[N+]([O-])c1ccccc1O[C@@H]1O[C@H](CO)[C@H](O)[C@H](O)[C@H]1O | 4.7

Row | SMILES | hERG current change (%, negative = inhibition) at 1uM [%]
39 | Cc1cc2cc(CNC(=O)c3ccc(S(=O)(=O)N4CCCCC4)cc3)ccc2[nH]1 | 4.59
40 | Cc1ccc(NC(=O)CSCC(=O)NNC(=O)c2nn(C)c(=O)c3ccccc23)cc1 | -7.39
41 | Cc1ccn2c(CNCCn3nc(C)cc3C)c(C(=O)N3CCCCCC3)nc2c1 | 8.17
42 | CCn1cc(SCC(=O)NCC2CCCO2)c2ccccc21 (centres unmarked) | 16.9
43 | CNC(=S)N1N=C(c2ccccc2)CC1c1ccc(OC)c(OC)c1 (centres unmarked) | -6.47
44 | COc1ccc(C(C)(C)C)cc1NC(=O)CCc1c(C)noc1C | 4.05
45 | COc1ccc(NC(=S)Nc2ccccc2OC)c(OC)c1 | 12.7
46 | CC1(C)CC(=O)C2=C(C1)N(c1ccccc1)C(=O)CC2c1ccsc1 (centres unmarked) | -8.57
47 | Cc1cccc(CCNS(=O)(=O)c2ccc3c(c2)oc(=O)n3C)c1 | 0.767
48 | O=C(CCCN1C(=O)c2ccccc2C1=O)Nc1cccc(S(=O)(=O)NC2=NCCC2)c1 | 15.1
49 | CCCNS(=O)(=O)c1ccc(OCC(=O)N2CCN(c3ccccc3)CC2)cc1 | 8.51
50 | C/C(=N\NC(=O)c1cccnc1)c1ccccc1 | 11.9
51 | COC(=O)c1ccc(S(=O)(=O)N2C3CCC2CC(NC(=O)NC2CCCCC2)C3)cc1 (centres unmarked) | 7.39
52 | Cn1c2c(c(=O)n(C)c1=O)C(C(F)(F)F)(C(F)(F)F)N=C(CCC1CCCCC1)N2 | 10.2
53 | CC(C)(C)c1cc(CN2CCCCC2)cc(C(C)(C)C)c1O | -16.6
54 | Cc1ccnc(NC(=O)c2ccc(NC(=O)c3ccco3)cc2)c1 | 4.21
55 | COc1cccc(/C=N/NC(=O)CN(CCc2ccccc2)S(=O)(=O)c2ccc(NC(C)=O)cc2)c1 | 11.6
56 | O=C1CC(SCCO)C(=O)N1c1ccc(Oc2ccccc2)cc1 (centres unmarked) | 3.96
